# Assay results as given in PubChem BioAssay AID624296 (National Center for Advancing Translational Sciences (NCATS), 2012).
# The whole screen tested about 350,000 compounds, of which about 9,900 (2.8%) were called active. Inconclusive means that the source gave no clear call. Such entries were picked first, then a sample of the others. The call rests on the fitted dose curve; in most records, active means well fitted activation curve with a large enough effect; inconclusive means small, poorly fitted or top-dose-only effect; inactive means no such curve, though single readings can be large or run the other way. No potency is given beside an inconclusive call; the fits are too rough.
# Test: A quantitative high throughput screen for small molecules that induce DNA re-replication in MCF 10a normal breast cells. Further: nearly all actives have a fitted effect of over 50% in size.
# Details: MCF 10A DNA re-replication, Hoechst nuclear intensity, 48 h; series mostly up to 46.1 µM
# Potency means the concentration at half of the fitted maximal effect; tags describe the fitted curve by direction and shape.
row,Structure (SMILES),Potency
1,O=C1c2ccccc2C(=O)N1CN(C(=O)c1ccccc1)c1ccc(O)cc1,"inconclusive [activator, single point]"
2,CCOc1ccc(CC(=NCCc2ccccc2)C2=C(O)CC(C)(C)CC2=O)cc1OCC,inactive
3,O=C(Nc1cc(S(=O)(=O)N2CCOCC2)ccc1N1CCOCC1)c1cnccn1,inactive
4,COc1ccc(NC(=O)c2sc3nc(C)nc(N4CCN(c5ccccn5)CC4)c3c2C)cc1Cl,"inconclusive [activator, partial curve]"
5,CCCc1cc(C(=O)Nc2ccn(Cc3ccc(C)cc3)n2)no1,"inconclusive [activator, single point]"
6,CCN(CC(=O)NCc1cccs1)C(=O)c1ccc(-c2ccc(F)cc2)o1,"inconclusive [activator, single point]"
7,Cc1cc(NC(=O)c2cc(-c3ccc(C)s3)nc3ccccc23)no1,inactive
8,Cc1ccc(S(=O)(=O)N(Cc2cc3ccccc3[nH]c2=O)c2cccc(C)c2)cc1,"inconclusive [activator, full curve, poor fit]"
9,Cc1c(C(=O)NCC2COc3ccccc3O2)oc2ccc(S(=O)(=O)N3CCOCC3)cc12 (centres undefined),"inconclusive [activator, partial curve, poor fit]"
10,Cc1cc(NS(=O)(=O)c2ccc(Nc3nc(-c4ccc(C)c(C)c4)cs3)cc2)no1,"inconclusive [activator, single point]"
11,CC(C)(C)N(Cc1ccccc1)C(=O)c1ccc(Br)o1,"inconclusive [activator, single point]"
12,Cc1ccc(C)c(CSC2=NCCN2S(=O)(=O)c2ccccc2)c1,"inconclusive [activator, single point]"
13,O=C(CSCc1c(F)cccc1Cl)NNC(=S)NC1CCCCC1,"inconclusive [activator, single point]"
14,CCOc1ccc(-c2[nH]ncc2-c2ccc(Cl)cc2)c(O)c1,"inconclusive [activator, partial curve, poor fit]"
15,C=CCC(=O)NC1CC(C)(C)Cc2c1cnn2-c1ccccc1C (centres undefined),inactive
16,CCN1CCN(C(=O)C2c3cc(OC)c(OC)cc3C(=O)N3CCc4ccccc4C23)CC1 (centres undefined),inactive
17,CCOc1ccccc1N(CC(=O)NCC1CCCO1)C(=O)CCC(=O)Nc1ccccn1 (centres undefined),inactive
18,O=C(Nc1ccncc1)C1CCN(S(=O)(=O)c2ccccc2)CC1,"inconclusive [activator, full curve]"
19,O=C1CC(=O)N(CCNc2ncc(C(F)(F)F)cc2Cl)C(=O)N1,"inconclusive [activator, partial curve, poor fit]"
20,CCOCCCNC(=S)NCCCNc1nc2cc3c(cc2cc1C#N)OCO3,"inconclusive [activator, partial curve, poor fit]"
21,Cc1ccc(Oc2coc3cc(OC(=O)c4cccs4)ccc3c2=O)cc1,inactive
22,CCC(Sc1ncnc2sc(C)c(C)c12)C(=O)OC (centres undefined),inactive
23,Cc1nnc2c3ccccc3c(-c3ccc(O)cc3)nn12,inactive

row,Structure (SMILES),Potency
1,NCCc1c(-c2ccccc2)n(-c2ccccc2)c2ccccc12,"inconclusive [activator, single point]"
2,COC(=O)C1=C(C)N(c2ccc(Cl)cc2)/C(=C/c2ccc(O)cc2)C1=O,"inconclusive [activator, single point]"
3,CSc1cccc(NC(=O)CSc2ncccc2C(=O)Oc2cccc([N+](=O)[O-])c2)c1,"inconclusive [activator, single point]"
4,O=C(COc1ccc(Cl)cc1)N1CCN(C(=O)c2ccccc2F)CC1,"inconclusive [activator, partial curve, poor fit]"
5,O=C(/C=C/c1cccc(Cl)c1)NCCN1CCOCC1,"inconclusive [activator, partial curve, poor fit]"
6,O=C(CN(C(=O)C1COc2ccccc2O1)c1ccccc1)NCC1CCCO1 (centres undefined),"inconclusive [activator, single point]"
7,Cc1ccccc1S(=O)c1ccccc1C(=O)O (centres undefined),inactive
8,O=C(CCN1C(=O)/C(=C/c2ccccc2F)SC1=S)N[C@@H](CO)Cc1ccccc1,"inconclusive [activator, single point]"
9,O=C(Oc1cccnc1)c1cc(S(=O)(=O)N2CCOCC2)ccc1Cl,"inconclusive [activator, single point]"
10,COc1ccc2nc(C)cc(NCc3cccc(C(F)(F)F)c3)c2c1,active: 20.6 µM
11,COc1ccc(-c2n[nH]c3c2CN(C(=O)c2ccc(OC)c(OC)c2)CC3)cc1,active: 20.6 µM
12,COC(=O)C1=CO[C@@H](O)C2C(CO)=CCC12 (some centres undefined),"inconclusive [activator, partial curve, poor fit]"
13,Cc1cccc(N=N/C(=C\O)C(=O)c2ccc(Br)cc2)c1,"inconclusive [activator, single point]"
14,CCOc1ccc(NS(=O)(=O)c2ccc(C(=O)N3CCCCC3)cc2)cc1,"inconclusive [activator, partial curve, poor fit]"
15,C=C(C)Cn1c(SCC(=O)N/N=C/c2ccccc2OCC(=O)O)nnc1-c1ccc(Br)cc1,inactive
16,CCCCNC(=O)Nc1ccccc1C(=O)NCCC,"inconclusive [activator, single point]"
17,COc1ccc(Cc2n[nH]c(=S)n2C)cc1Br,inactive
18,CC(=O)c1ccc2c(c1)CC1(C2)Cc2cc3c(cc2C1)C(=O)CC3 (centres undefined),active: 4.11 µM
19,CC1(c2ccncc2)Nc2ccccc2-c2nc3ccccc3n21 (centres undefined),"inconclusive [activator, partial curve, poor fit]"
20,OC[C@@H]1[C@@H](c2ccc(F)cc2)C(c2cccc(Cl)c2)=NN1c1ccccc1,active: 0.58 µM
21,Cc1cc(C)c2nc3sc(C(=O)N4CCOCC4)c(N)c3cc2c1,"inconclusive [activator, partial curve, poor fit]"
22,O=C(Nc1cccc([N+](=O)[O-])c1)c1[nH]ncc1Cl,inactive
23,CCOc1ccc(S(=O)(=O)N2CCN=C2c2ccccc2)c(C)c1C,"inconclusive [activator, partial curve, poor fit]"

row,Structure (SMILES),Potency
1,CCOC(=O)CSc1nnc(CSc2nc3sc4c(c3c(=O)[nH]2)CCCC4)n1-c1ccccc1,"inconclusive [activator, single point]"
2,Cc1cc(/C=C2\SC(=Nc3ccc(F)cc3)NC2=O)c(C)n1-c1ccc(S(N)(=O)=O)cc1,active: 1.64 µM
3,CC(=O)N[C@@H](Cc1c[nH]c2ccccc12)C(=O)OCC(=O)Nc1cc(C)on1,inactive
4,O=C(NCCCN1CCCC1=O)c1cc(-c2ccc(F)cc2)nc2ccccc12,"inconclusive [activator, single point]"
5,Cc1oc2cc(OC(=O)c3ccco3)ccc2c(=O)c1-c1nc2ccccc2n1C,"inconclusive [activator, single point]"
6,[O-]/C(=C(\C(=S)Nc1ccc(Cl)cc1)[n+]1ccccc1)c1ccc(OC(F)F)cc1,"inconclusive [activator, single point]"
7,O=C(Nc1ccc2[nH]c3c(c2c1)CCCC3)c1ccco1,inactive
8,CCn1nnnc1SCC(=O)N(C1CCCCC1)C1CCCCC1,inactive
9,COc1cc2cc(CCCO)oc(=O)c2cc1OC,"inconclusive [activator, partial curve, poor fit]"
10,COc1ccc(CCNC(=O)/C(C#N)=C/c2cccc(OCc3ccccc3)c2)cc1OC,"inconclusive [activator, single point]"
11,CCOc1ccccc1N1CCN(C(=O)NC(C)c2ccc(F)c(F)c2)CC1 (centres undefined),"inconclusive [activator, single point]"
12,C=C(C)C1CC=C(C)/C(=N\NC(=O)CCC(=O)Nc2ccc(C)c(C)c2)C1 (centres undefined),"inconclusive [activator, single point]"
13,CC1c2ccccc2N(S(=O)(=O)c2ccccc2)C1C (centres undefined),"inconclusive [activator, single point]"
14,COCCCn1c(C(=O)NCCN2CCOCC2)cc2c(=O)n3cccc(C)c3nc21,"inconclusive [activator, partial curve, poor fit]"
15,Cc1[nH]c2ccc(-c3n[nH]c(=S)n3Cc3ccccc3)cc2c1C,inactive
16,CC(=O)c1ccc(-c2ccc(C(=O)Nc3nc(-c4ccccn4)cs3)o2)cc1,active: 16.4 µM
17,Cc1sc2nc(CC(=O)NN)[nH]c(=O)c2c1C,"inconclusive [activator, single point]"
18,CCc1nnc(NC(=O)CSc2nnc(-c3ccccc3O)n2-c2ccc(C)cc2C)s1,active: 9.2 µM
19,CCCCNC(=O)Cn1cnc2c(cnn2-c2ccc(C)c(C)c2)c1=O,inactive
20,O=C(CCCCl)NC(=S)Nc1ccc(CN2CCOCC2)cc1,"inconclusive [activator, full curve, poor fit]"
21,COc1ccc(NC(=O)C(C)N(C)Cc2ccc3ccccc3c2)cc1 (centres undefined),"inconclusive [activator, single point]"
22,O=C(O)C1CCN(C(=O)CSc2nc3ccccc3s2)CC1,inactive
23,COc1ccc(OC)c(/C=C/C(=O)NC2=NCCS2)c1,"inconclusive [activator, partial curve, poor fit]"
